The supplement of paper PMC10126150
Sequences with one replicate were seen in a single cluster, so their values are uncertain.

Test system: ATP
Experiment: switch fluorescence ratio, 500 uM ATP over buffer (Cy3 cluster intensity, sum of 5 cycles each) (fold (ratio)); higher = stronger signal-on switching upon ATP binding; sequences stand for … in TCGTCGGCAGCGTCAGATGTGTATAAGAGACAGTTTTTTTTTTTTTTTTTTTTTTTTT…TC
Settings: aptamer strand: ATP DNA aptamer (quencher-CACCTGGGGGAGTATTGCGGAGGAAGG + anchor), 100 nM annealed; ATP concentration: 500 uM; one replicate
Method in brief: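 Cy3-labelled switching-strand clusters on a modified Illumina MiSeq flow-cell were annealed to 100 nM quencher-labelled ATP aptamer and imaged first in selection buffer, then after 15 min with 500 uM ATP at 22 °C. NaOH stripping and re-annealing separated each of five buffer/ATP cycles, and clusters outside 100-1000 RFU were excluded. The fluorescence ratio sums target-cycle Cy3 intensity over buffer-cycle Cy3 intensity per cluster and averages it per switch-domain sequence.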
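Note: ATP exposure 15 min at 22 °C before imaging.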

Row | Sequence | switch fluorescence ratio
1 | GGTACAGAG | 1.15
2 | GGCTCTCCAT | 1.02
3 | CGTTCTACAT | 0.998
4 | GCCAAGT | 0.971
5 | TGCTAGTGTC | 1.05
6 | GGCCTTGAGT | 1.01
7 | TGCCTCGAGT | 0.989
8 | ACCGTGCACT | 1.04
9 | GGAACCAAAA | 1.06
10 | CTATGTGGAC | 1.04
11 | TATATTACGG | 1.06
12 | CTGCGAAAGA | 1.02
13 | GACGAGAGGG | 1.04
14 | ATTATGAGGT | 1
15 | CTAATTACTC | 1.04
16 | CGCACGCCGC | 1.23
17 | TCGAACGT | 1
18 | TACGAAGTGT | 0.962
19 | ATATTTCTGA | 1.01
20 | CCGGAGTGCC | 1.04
21 | ACTTTACCAG | 1.42
22 | AAGAGCACTG | 1.05
23 | ATGGATTACG | 0.978

Row | Sequence | switch fluorescence ratio
24 | AGAATTCCCC | 0.994
25 | GGCGGTTGTA | 0.991
26 | GCGGGCCGTT | 1.04
27 | CTGTTAGTGG | 0.982
28 | ACACTTAGC | 1.06
29 | TTAAATGCGC | 1.03
30 | AATCTTCGGA | 0.993
31 | ACCCATATGG | 1.05
32 | GGCATGAAGT | 0.989
33 | AGTAGGGGCT | 1.06
34 | TTGCATGGAG | 1.01
35 | GTTGTACAGG | 1.02
36 | GTTGACATGA | 0.978
37 | AAGCCAAGAT | 1
38 | GGCCTTGCAA | 1.56
39 | GGAGCGCAAG | 1.04
40 | CTATAACGG | 1.02
41 | GTCATTTGGT | 1.02
42 | GGTGGTATGA | 0.994
43 | CATCGGTAT | 1.01
44 | TTGTCGGGTA | 1
45 | GGGGGCGTAA | 1.1
46 | CTGGATTGCA | 0.966

Row | Sequence | switch fluorescence ratio
47 | AAATAGGCAC | 1.02
48 | AGAATCGTTC | 1.12
49 | CCATGAGT | 1.04
50 | GACCCGCCAG | 1.07
51 | GGGATCCCGG | 0.996
52 | TAGCTCGAGG | 1.03
53 | GTCATAATCT | 1.02
54 | CATGGCGGTA | 1.06
55 | TGTGGCGGGG | 0.993
56 | CAGTTAGAAT | 0.953
57 | CGATTGGAGG | 0.98
58 | ATCAAGTTTT | 0.999
59 | TGTCGTGTAT | 0.987
60 | CGCCTAATTA | 1.03
61 | AGTTATTATG | 0.995
62 | TAGTTAGTGG | 0.976
63 | TTTTAGCGTA | 1.1
64 | CTAGGTTTT | 1.02
65 | CGCTTGTTTT | 0.956
66 | TTCGGAGTGT | 0.995
67 | TATATCAAAG | 1
68 | TTGTGAGCAG | 0.997
69 | CGCATCGATT | 1.04

Row | Sequence | switch fluorescence ratio
70 | GACATAAGAT | 0.987
71 | CATCAGCGCT | 1.09
72 | GAGGTCTCTC | 0.957
73 | AGATTGGCTT | 0.969
74 | AGCGAGGCGA | 1.1
75 | CCAATGCCCA | 1.05
76 | CCTTCTTTAT | 0.993
77 | ATTCCCTTTA | 1.04
78 | AGTCCGAGGA | 0.959
79 | AGAGACCGCG | 0.906
80 | GAAAAAAAG | 0.973
81 | TCAACGGCGG | 0.98
82 | GACTGTGCCA | 1.02
83 | AGATGACGTA | 0.986
84 | CTAACATT | 1
85 | GTTACTTCTG | 0.983
86 | TGACGGTTGC | 1.07
87 | ATCTGGGCTT | 0.956
88 | GCGGGAAGGA | 1.01
89 | AACTGATAGA | 1
90 | TGGCCGTCCG | 1.01
91 | CTCTAGCGAA | 1.48
92 | AGAATAGTTC | 1

Row | Sequence | switch fluorescence ratio
93 | TCAGTGTTTG | 0.997
94 | ACTAGTCCGT | 1.03
95 | GTCCTATCAC | 0.979
96 | AAAGTGTAAT | 0.988
97 | TTGGAGTAAC | 1.02
98 | ATGAGTAACA | 0.999
99 | TTACCTCCA | 1.42
100 | AAAACTCCTT | 1
101 | TGAGGTCGTT | 1.03
102 | TGACGGTAGG | 1.01
103 | TAGACACGAG | 1.09
104 | TATCCCTGTG | 1.09
105 | GAGGGATGAG | 0.991
106 | TGATGGTC | 0.963
107 | AATGGGGA | 0.974
108 | AACCCGGTTT | 1.11
109 | CATTATGTCC | 1.01
110 | CCGCCAGTGT | 4.3
111 | GAACTGGGTC | 0.999
112 | AAGATAGGAG | 0.968
113 | TGGCGCAAGG | 1.11
114 | GCTTCCTTAT | 1.12
115 | GGAGGAACAG | 1.03

Row | Sequence | switch fluorescence ratio
116 | TCTAATCTAG | 0.987
117 | TCGCTAAATT | 0.999
118 | TTTGGCATAT | 1.07
119 | CATGTTAACT | 1.04
120 | TTGATCCCGG | 1.01
121 | CGGGCGTATA | 1.02
122 | GCACTGCGAG | 0.968
123 | ATTGCTACG | 1.04
124 | ACATAAAGAG | 1.02
125 | CCACTGTTGT | 0.973
126 | AGCCCCAGC | 1.06
127 | CTGTGGGATC | 1.08
128 | TGCGCGTTTC | 1.07
129 | AGCGGTCGAG | 1
130 | AGATTCGTTG | 0.963
131 | TCGATATACA | 1.06
132 | CATTTCTCAG | 1.01
133 | GGGGCAGTGG | 0.968
134 | CGGAAAATGA | 0.988
135 | CAGTAATGGA | 1.08
136 | GGGAGGGCGC | 1.02
137 | TTAAACTAG | 0.987
138 | ATCCGGGGGT | 0.993

Row | Sequence | switch fluorescence ratio
139 | GCATGATGCC | 0.949
140 | CCTCGCTGTT | 2.04
141 | ATCCGACAGG | 1.09
142 | TAACTGCACT | 1.43
143 | GGGAATTGGC | 1.14
144 | CTGAAGATGC | 1.61
145 | GGGCCACAGG | 1.06
146 | GCCAGATTGC | 1.05
147 | CGCACTAAGG | 1.14
148 | AGCTTGGGAC | 1.02
149 | TTTTCGAGGA | 0.98
150 | CTCACGAGG | 1.03
151 | ATCGACAGCG | 0.971
152 | AAAGTGAAAA | 1.05
153 | AGGGGTAGTC | 0.855
154 | CTTATGAGTA | 0.999
155 | ATAAAACCCT | 1.18
156 | CGTCTTGGCA | 1.04
157 | TGTTCAGTGT | 1
158 | TCGCTATATG | 1.27
